B1: MS2 coat protein; the commonest letter at each place (parent)
chain: MASNFTQFVLVDNGGTGDVTVAPSNFANGVAEWISSNSRSQAYKVTCSVRQSSAQNRKYTIKVEVPKVATQTVGGVELPVAAWRSYLNMELTIPIFATNSDCELIVKAMQGLLKDGNPIPSAIAANSGIY

Variants of: B1
Test: apparent fitness score (VLP assembly selection enrichment vs plasmid library) (log10 ratio); higher = better expression / assembly into well-formed VLPs
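Further: counts from Illumina MiSeq reads, cDNA of packaged RNA versus plasmid DNA taken before selection, each replicate independent from library construction onward, expression induced with 0.1% arabinose.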

Question: Which “apparent fitness score (log10)” value does the source give for MASNFTQFVLVDNGGTGDVTVAPSNFANGVAEWISSNSRSQAYKVTCSVRQSSAQNRKYTIKVEVPKVATQTVGGRELPVAAWRSYLNMELTIPIFATNSDCELIVKAMQGLLKDGNPIPSAIAANSGIY [V76R] here?
Answer: -0.84

Question: With MASNFTQFVLVDNGGTGDVTVAPSNFANGVAEWISSNSRSQAYKVTCSVRQSSAQNRKYTIKVEVPKVATQTVGGPELPVAAWRSYLNMELTIPIFATNSDCELIVKAMQGLLKDGNPIPSAIAANSGIY [V76P] as the variant, how does the “apparent fitness score (log10)” value read?
Answer: -0.0518

Question: For MASNFTQFVLVDNGGTGDVTVAPSNFANGVAEWISSNSRSQAYKVTCSVRQSSAQNRKYTIKVEVPKVATQTVGGLELPVAAWRSYLNMELTIPIFATNSDCELIVKAMQGLLKDGNPIPSAIAANSGIY [V76L], which “apparent fitness score (log10)” value is on record?
Answer: 0.0989

Question: Which “apparent fitness score (log10)” value does the source give for MASNFTQFVLVDNGGTGDVTVAPSNFANGVAEWISSNSRSQAYKVTCSVRQSSAQNRKYTIKVEVPKVATQTVGGIELPVAAWRSYLNMELTIPIFATNSDCELIVKAMQGLLKDGNPIPSAIAANSGIY [V76I] here?
Answer: 0.162

Question: With MASNFTQFVLVDNGGTGDVTVAPSNFANGVAEWISSNSRSQAYKVTCSVRQSSAQNRKYTIKVEVPKVATQTVGGDELPVAAWRSYLNMELTIPIFATNSDCELIVKAMQGLLKDGNPIPSAIAANSGIY [V76D] as the variant, how does the “apparent fitness score (log10)” value read?
Answer: -1.15

Question: Which “apparent fitness score (log10)” value does the source give for MASNFTQFVLVDNGGTGDVTVAPSNFANGVAEWISSNSRSQAYKVTCSVRQSSAQNRKYTIKVEVPKVATQTVGGFELPVAAWRSYLNMELTIPIFATNSDCELIVKAMQGLLKDGNPIPSAIAANSGIY [V76F] here?
Answer: -0.308

Question: For MASNFTQFVLVDNGGTGDVTVAPSNFANGVAEWISSNSRSQAYKVTCSVRQSSAQNRKYTIKVEVPKVATQTVGGCELPVAAWRSYLNMELTIPIFATNSDCELIVKAMQGLLKDGNPIPSAIAANSGIY [V76C], which “apparent fitness score (log10)” value is on record?
Answer: -1.29

Question: With MASNFTQFVLVDNGGTGDVTVAPSNFANGVAEWISSNSRSQAYKVTCSVRQSSAQNRKYTIKVEVPKVATQTVGGAELPVAAWRSYLNMELTIPIFATNSDCELIVKAMQGLLKDGNPIPSAIAANSGIY [V76A] as the variant, how does the “apparent fitness score (log10)” value read?
Answer: -0.863

Question: Which “apparent fitness score (log10)” value does the source give for MASNFTQFVLVDNGGTGDVTVAPSNFANGVAEWISSNSRSQAYKVTCSVRQSSAQNRKYTIKVEVPKVATQTVGGGELPVAAWRSYLNMELTIPIFATNSDCELIVKAMQGLLKDGNPIPSAIAANSGIY [V76G] here?
Answer: -0.756

Question: Which “apparent fitness score (log10)” value does the source give for MASNFTQFVLVDNGGTGDVTVAPSNFANGVAEWISSNSRSQAYKVTCSVRQSSAQNRKYTIKVEVPKVATQTVGGKELPVAAWRSYLNMELTIPIFATNSDCELIVKAMQGLLKDGNPIPSAIAANSGIY [V76K] here?
Answer: -0.831

Question: Which “apparent fitness score (log10)” value does the source give for MASNFTQFVLVDNGGTGDVTVAPSNFANGVAEWISSNSRSQAYKVTCSVRQSSAQNRKYTIKVEVPKVATQTVGGWELPVAAWRSYLNMELTIPIFATNSDCELIVKAMQGLLKDGNPIPSAIAANSGIY [V76W] here?
Answer: -0.862

Question: For MASNFTQFVLVDNGGTGDVTVAPSNFANGVAEWISSNSRSQAYKVTCSVRQSSAQNRKYTIKVEVPKVATQTVGGHELPVAAWRSYLNMELTIPIFATNSDCELIVKAMQGLLKDGNPIPSAIAANSGIY [V76H], which “apparent fitness score (log10)” value is on record?
Answer: -0.263

Question: For MASNFTQFVLVDNGGTGDVTVAPSNFANGVAEWISSNSRSQAYKVTCSVRQSSAQNRKYTIKVEVPKVATQTVGGEELPVAAWRSYLNMELTIPIFATNSDCELIVKAMQGLLKDGNPIPSAIAANSGIY [V76E], which “apparent fitness score (log10)” value is on record?
Answer: -1.56

Question: Which “apparent fitness score (log10)” value does the source give for MASNFTQFVLVDNGGTGDVTVAPSNFANGVAEWISSNSRSQAYKVTCSVRQSSAQNRKYTIKVEVPKVATQTVGGYELPVAAWRSYLNMELTIPIFATNSDCELIVKAMQGLLKDGNPIPSAIAANSGIY [V76Y] here?
Answer: -1.41

Question: Which “apparent fitness score (log10)” value does the source give for MASNFTQFVLVDNGGTGDVTVAPSNFANGVAEWISSNSRSQAYKVTCSVRQSSAQNRKYTIKVEVPKVATQTVGGTELPVAAWRSYLNMELTIPIFATNSDCELIVKAMQGLLKDGNPIPSAIAANSGIY [V76T] here?
Answer: -1.03

Question: Which “apparent fitness score (log10)” value does the source give for MASNFTQFVLVDNGGTGDVTVAPSNFANGVAEWISSNSRSQAYKVTCSVRQSSAQNRKYTIKVEVPKVATQTVGGSELPVAAWRSYLNMELTIPIFATNSDCELIVKAMQGLLKDGNPIPSAIAANSGIY [V76S] here?
Answer: -0.931

Question: Which “apparent fitness score (log10)” value does the source give for MASNFTQFVLVDNGGTGDVTVAPSNFANGVAEWISSNSRSQAYKVTCSVRQSSAQNRKYTIKVEVPKVATQTVGGMELPVAAWRSYLNMELTIPIFATNSDCELIVKAMQGLLKDGNPIPSAIAANSGIY [V76M] here?
Answer: -0.558

Question: Which “apparent fitness score (log10)” value does the source give for MASNFTQFVLVDNGGTGDVTVAPSNFANGVAEWISSNSRSQAYKVTCSVRQSSAQNRKYTIKVEVPKVATQTVGGNELPVAAWRSYLNMELTIPIFATNSDCELIVKAMQGLLKDGNPIPSAIAANSGIY [V76N] here?
Answer: -1.41

Question: With MASNFTQFVLVDNGGTGDVTVAPSNFANGVAEWISSNSRSQAYKVTCSVRQSSAQNRKYTIKVEVPKVATQTVGGQELPVAAWRSYLNMELTIPIFATNSDCELIVKAMQGLLKDGNPIPSAIAANSGIY [V76Q] as the variant, how does the “apparent fitness score (log10)” value read?
Answer: < -4

Question: With MASNFTQFVLVDNGGTGDVTVAPSNFANGVAEWISSNSRSQAYKVTCSVRQSSAQNRKYTIKVEVPKVATQTVGVVELPVAAWRSYLNMELTIPIFATNSDCELIVKAMQGLLKDGNPIPSAIAANSGIY [G75V] as the variant, how does the “apparent fitness score (log10)” value read?
Answer: -0.797

Question: Which “apparent fitness score (log10)” value does the source give for MASNFTQFVLVDNGGTGDVTVAPSNFANGVAEWISSNSRSQAYKVTCSVRQSSAQNRKYTIKVEVPKVATQTVGYVELPVAAWRSYLNMELTIPIFATNSDCELIVKAMQGLLKDGNPIPSAIAANSGIY [G75Y] here?
Answer: -1.04

Question: Which “apparent fitness score (log10)” value does the source give for MASNFTQFVLVDNGGTGDVTVAPSNFANGVAEWISSNSRSQAYKVTCSVRQSSAQNRKYTIKVEVPKVATQTVGWVELPVAAWRSYLNMELTIPIFATNSDCELIVKAMQGLLKDGNPIPSAIAANSGIY [G75W] here?
Answer: -0.824
